The chains are these.
B1: LINE1-mini (parent)
chain: GGCAGAGCUCAACACAGCGUGGCAAAGUGGCUGUGGCUAGACUGCC

The source gives no read counts; variants with many changes may rest on few reads.

The results in this text go back to the RNAGym collection of RNA variant scans (doi:10.7554/elife.90254).

The data set covers variants of B1. The data set is described as follows: self-cleavage, relative activity (ratio to wild type); higher = more cleavage; in vitro, sequencing; the parent is a self-cleaving ribozyme.
Consider GGCAGGGCUAAACACAGCGUGGCAAAGUGACUGUGGCUAGACAGCC, for which the self-cleavage stood at 0.01.

GGCAGGGCUCAACAAUGCGUGGCAAAGUGGCUGUGGCUAGACUGCC: the self-cleavage came to 0.27.

As for GGCAGGGCUUAACAAAGCGUGGUAAAGUGGCUGUGGUUAGACUGCC, the self-cleavage is 0.04.

With GGCAGGGCUCAAAACAGCGUGGCAAAAUGGCUGUGGCUAGACUGCC, the self-cleavage turned out to be 0.3.

For GGCAGGGCUCAACAUAGCGUGGCAAAGUGGCUGCGGCUAGACUGCC, the self-cleavage amounted to 0.02.

Consider GGCAGGGCUCAAGACAGCGUGGCAAAGUGGCUGUGGUUAGACUGCC, for which the self-cleavage was 0.14.

For GGCAGGGCUAAACACAGCGUGGCAAAGUGGCCGUGGCUAUACUGCC, the self-cleavage came to 0.

GGCAGGGCUCAACACAGUGUGCUAAAGUGGCUGUGAUUAGACUGUG: the self-cleavage worked out at 0.16.

For GGCAGGGCUCAACACAGCGUGGCAAAGUGGUUGUGGCUAGAUUGCC, the self-cleavage turned out to be 0.01.

In the case of GGCAGGGCUCAACAUAGCGUGGCAAAGUGUCUGUGGCUUGACUGCC, the self-cleavage stood at 0.05.

Turning to GGCAGGGCUCAACAUAGCGUAGCAAAGUGGCUGUGGCUAGACUGCC, the self-cleavage came out at 0.07.

As for GGCAGGGCUCAACACAGCGUGGAAAAGUGGGUGUGGCUAGACUGCC, the self-cleavage turned out to be 0.03.

As to GGCAGGGCUCAACACAGGGCGGCAAAGUGGCUGUGGCUAGACUGCC, the self-cleavage turned out to be 0.03.

On to GGCAGGGCUCAACACAGCGUGGGAAAGUGGCUGUGGCUAGACUGAC, for which the self-cleavage was found to be 0.21.

In the case of GGCAGGGCUCAACACAGUGUGGCAAAGUGGCUGUGGCGAGACUGCC, the self-cleavage was determined as 0.

Regarding GGCAGGGCUCAACAGAGCGUGGCGAAGUCGCUGUGCCUAGACUGCC, the self-cleavage was found to be 0.02.

With GGCAGGGCUCAACAGAGCGUGGCAAAGUGGCUGUGGCUAGAUUGCC, the self-cleavage worked out at 0.02.

Consider GGCAGGGCUCAACACAGCGUGGGAAACUGGCUGUGGCUUGACUGCC, for which the self-cleavage turned out to be 0.01.

For GGCAGGGCUCAACACAGCGUGGAAAAGCGGCUGUGGCUAGACUGCC, the self-cleavage was found to be 0.07.

For GGCAGGGCUCAACACAGGGUGGCAAAGUGGCUGUGGCUAGACUCCC, the self-cleavage was found to be 0.05.

Consider GGCAGGGCUUAACACAGCGUGGCAAAGUAGUUGUGGCUAGACUGCC, for which the self-cleavage worked out at 0.01.

Consider GGCAGGGCUUAACACGGCCUGGCAAAGUGGCUGUGGCUAGACUGAC, for which the self-cleavage was determined as 0.03.

For GGCAGGGCUCAACAGAGCGUGGCAAAGUUGCUGUGGCUAGACUGCC, the self-cleavage was determined as 0.01.

As for GGCAGGGCUCAACAAAGCGUGGCAAAGUGGCUGUGGCUGGACUGCC, the self-cleavage is 0.01.

For the variant GGCAGGGCUCAACAGAGGGUGGCAAGGUGGCUGUGGCUAGACGGCC, the self-cleavage was found to be 0.03.

On to GGCAGGGCUCAACAAAGCCUGGCAAACGGGCUGUGGCCAGAGUCCC, for which the self-cleavage was determined as 0.

With GGCAGGGCUCAACACAGCGUGGGACAGUGGCUCUGGCUAGACUGCC, the self-cleavage is 0.04.

Consider GGCAGGGCUCAAUACAGCAUGGCAAAGUGGCUGUUGCUAGACUGCC, for which the self-cleavage was 0.02.

In the case of GGCAGGGCUCAACACAGUGUGGCAAAUUGGGUGUGGCUAGACUGCC, the self-cleavage was found to be 0.01.

As to GGCAGGGCUCAAGACAGCGUGGCAAAGCGGCUUUGUCUAGACUGUC, the self-cleavage came to 0.35.

For GGCAGGGCUCAACACAGCGUGGAAAAGUGCCUGUGGCUAGACUGCC, the self-cleavage worked out at 0.12.

Turning to GGCAGGCCUCAACACAGCGUGGCAAAGUGCCUGUGGCUCGACUGCC, the self-cleavage was 0.01.

Turning to GGCAGGGCUAAACACAGCGUUGUAAAGUGGCUGUGGCUAGACUGCC, the self-cleavage turned out to be 0.04.

With GGCAGGUCUCAACACAAAGUGGCAAAGUGGCUGUGGCUCGACUGCC, the self-cleavage amounted to 0.01.

For GGCAGGGCUCAACAAAGCGUGGCAAAGUGGAUGUGGCUAGACUGCC, the self-cleavage worked out at 0.05.

For the variant GGCAGGCCUCAACACAGCAUGGCAAAGUGGCUGUGGCUAGACUGCC, the self-cleavage turned out to be 0.1.

GGCAGGGCUUUACACAGCGUGGCAAAGUGGCUGUGGCUAGACUGCC: the self-cleavage came out at 0.02.

For GGCAGGGCUAAACACAGCGUGGCAAACUGGCUAUGGCUAGACUGCC, the self-cleavage stood at 0.02.

For the variant GGCAGGGCUCAAAACAGCGUGGCAACGAGGCUGUGGCUAGACUGCC, the self-cleavage was 0.05.

Turning to GGCAGGGCUCAAAACAGCGUGGCAAAGUGGCUGUGGCUAGAAUGCA, the self-cleavage was 0.29.

GGCAGGGCUCAAUAAAGCGUGGCUAAGUGGCUGUGGCUAGACUGCC: the self-cleavage amounted to 0.02.

Turning to GGCAGGGCUAAACACAGCGUGGCAAAGUGGCUGUGGCUACACUGAC, the self-cleavage turned out to be 0.02.

Regarding GGCAGGGCUCAAGACAGCGUGGCAAAGGGGCUGUUGCUAGACUGCC, the self-cleavage was 0.22.

In the case of GGCAGGACACAACACAGCGUGGUAAAGUGGCUGUGGCUAGACUGCC, the self-cleavage was found to be 0.07.

With GGCAGGGCUCAACACAGAGUGGCAAAGUGGCUGUGCCUAGACUGCC, the self-cleavage was 0.02.

Regarding GGCAGGAGUCAACACAGCGUGGCAAAGUGGCUGUGGCUAGACUGCC, the self-cleavage was 0.15.

In the case of GGCAGGGCUCAACACAGGGUGGCAAAGUGGCUGUGGCUAGUCUGCC, the self-cleavage stood at 0.04.

As for GGCAGGGCUCAACACAGGUUGGCAAAGUGUCUGUGGCUAAACUGCC, the self-cleavage amounted to 0.06.

Consider GGCAGGGCUAAACACAGCGUGGCAAAGUGGCUUUGGCUAGACUGCC, for which the self-cleavage stood at 0.01.

As for GGCAGGGCUCAAAACAGCGUUGCAAAGUGGCUGUGGCUAGACUGCC, the self-cleavage came to 0.15.

Take GGCAGGGCUCAACACAGGGUGGCAAGGUGGCUGUGGCUAGACUGCC: the self-cleavage stood at 0.02.

As for GGCAGGGCUCAAAACAGCGUGGCAAAGUGGCUGUGACUCGACUGCC, the self-cleavage came to 0.05.

In the case of GGCAGGCCUAAACACAGCGGGGCAAAGUGGCUGUGGCUAGACUGCC, the self-cleavage turned out to be 0.

For GGCAGGACUCAACACAGCGUGGCAAAAUGGCUGUGGCUAGACUGCC, the self-cleavage came out at 0.05.

Take GGCAGGGCUCAACACAGGGUGGCAAAGUGGUUGUGGCUAGACUGCC: the self-cleavage stood at 0.06.

As for GGCAGGCCACUACACAGCGUGGCAAAGUGGCUGUGGCUAGUCUGCC, the self-cleavage was 0.02.
